# Measured values: publication PMC4336329 (PLoS ONE, 2015)
# Hit rate of the full screen: of about 310,000 compounds, about 2,200 (0.71%) showed an effect of 50% or more. Effects have a minus sign here. The list shows a part of the results.
# Molecular target: human ether-à-go-go-related gene (hERG) potassium channel (human, UniProt Q12809)
# Assay: primary screen, population patch clamp on CHO cells stably expressing hERG
# human ether-à-go-go-related gene (hERG) potassium channel, sequence (Q12809 whole entry, looked up): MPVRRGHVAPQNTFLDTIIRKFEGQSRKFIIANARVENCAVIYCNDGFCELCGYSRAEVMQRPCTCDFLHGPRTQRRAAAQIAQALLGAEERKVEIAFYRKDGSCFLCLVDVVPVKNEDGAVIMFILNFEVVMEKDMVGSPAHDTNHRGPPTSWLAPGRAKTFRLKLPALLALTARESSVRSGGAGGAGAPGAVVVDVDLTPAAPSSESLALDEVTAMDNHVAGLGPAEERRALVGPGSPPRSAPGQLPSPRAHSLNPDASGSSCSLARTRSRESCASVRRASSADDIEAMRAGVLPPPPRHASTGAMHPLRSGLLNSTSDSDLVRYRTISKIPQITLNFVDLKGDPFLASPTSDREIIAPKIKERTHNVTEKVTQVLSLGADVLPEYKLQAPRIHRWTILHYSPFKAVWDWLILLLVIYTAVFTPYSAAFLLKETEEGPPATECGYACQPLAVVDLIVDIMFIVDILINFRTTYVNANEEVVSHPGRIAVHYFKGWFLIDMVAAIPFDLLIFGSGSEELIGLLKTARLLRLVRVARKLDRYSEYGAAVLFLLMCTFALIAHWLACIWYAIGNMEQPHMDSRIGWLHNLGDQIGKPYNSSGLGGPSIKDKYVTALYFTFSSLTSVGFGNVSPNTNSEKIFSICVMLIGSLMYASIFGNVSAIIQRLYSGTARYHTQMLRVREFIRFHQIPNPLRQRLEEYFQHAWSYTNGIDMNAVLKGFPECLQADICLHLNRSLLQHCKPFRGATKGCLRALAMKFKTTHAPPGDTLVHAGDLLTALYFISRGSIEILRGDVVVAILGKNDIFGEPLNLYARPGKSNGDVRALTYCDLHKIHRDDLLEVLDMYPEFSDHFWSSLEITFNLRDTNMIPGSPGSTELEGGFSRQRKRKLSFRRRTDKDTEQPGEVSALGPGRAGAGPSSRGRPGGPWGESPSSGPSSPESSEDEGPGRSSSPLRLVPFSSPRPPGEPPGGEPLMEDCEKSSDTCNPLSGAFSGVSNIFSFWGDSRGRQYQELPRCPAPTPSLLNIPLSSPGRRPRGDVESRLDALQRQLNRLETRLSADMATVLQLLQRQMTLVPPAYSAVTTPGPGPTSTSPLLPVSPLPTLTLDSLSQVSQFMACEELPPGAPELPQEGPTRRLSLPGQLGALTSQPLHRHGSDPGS
row,Compound,"hERG current change (%, negative = inhibition) at 1uM"
1,S=C(NCCc1ccccn1)Nc1ccccc1Cl,17%
2,CN1Cc2sc(N)c(C#N)c2CC1(C)C.Cl,0.571%
3,O=C(NCc1ccco1)/C(=C\c1cccs1)NC(=O)c1ccco1,-4.12%
4,COc1ccccc1OCC(=O)NCCS(=O)(=O)N1CCN(c2ccc(F)cc2)CC1,-3.49%
5,Cc1nc(C(=O)Nc2cc(Cl)ccc2Cl)nn1-c1cc(OC(C)C)c(Cl)cc1Cl,-0.146%
6,CC(C)Cc1nnc(NC(=O)C2CCN(C(=O)c3ccc(Cl)cc3)CC2)s1,-4.92%
7,COCc1cc(C)nc(N2CCc3ccccc32)c1C#N,7.44%
8,O=C1N(Cc2cccnc2)C[C@@H]2C[C@@H](c3ccc4nonc4c3)N3CCC[C@@]123,-18.2%
9,Cc1ccc(C(=O)Nc2sc3c(c2C(=O)O)CCCCC3)o1,1.25%
10,NS(=O)(=O)c1ccc(NC(=S)N2CCN(S(=O)(=O)c3ccc(F)cc3)CC2)cc1,11.9%
11,CCC(C)N1CCN(C(=O)c2cccs2)CC1.O=C(O)C(=O)O (centres unmarked),3.54%
12,CCOC(=O)c1[nH]c2ccc(OC)cc2c1NC(=S)N1CCN(c2cccc(C)c2C)CC1,10.5%
13,CCOc1ccc(OCCC(=O)NNC(=O)c2nn(C)c(=O)c3ccccc23)cc1,17.1%
14,COCc1[nH]c(=S)[nH]c(=O)c1C,15.8%
15,CCC(=O)Nc1nc2ccc(NC(=O)c3cc(OC)c(OC)c(OC)c3)cc2s1,5.48%
16,O=C(Cn1cnc2ccccc2c1=O)c1ccc(OC(F)F)cc1,-5.57%
17,CC1C(=O)C(C)C(c2ccc3c(c2)OCO3)NC1c1ccc2c(c1)OCO2 (centres unmarked),11.2%
18,O=C(O)CC(Cn1cnnn1)c1ccccc1 (centres unmarked),19.9%
19,CC(Oc1ccc2c3c(c(=O)oc2c1)CCCC3)C(=O)NCC1CCC(C(=O)O)CC1 (centres unmarked),12%

row,Compound,"hERG current change (%, negative = inhibition) at 1uM"
1,COc1cccc(NC(=O)CCN2C(=O)C3CC=CCC3C2=O)c1 (centres unmarked),-4.15%
2,O=C(CN1C(=O)CCSc2ccccc21)N1CCC2(CC1)OCCO2,15.2%
3,CCOc1cccc(C=Nc2cc(C)cc(C)c2O)c1O,1.07%
4,Cc1ccc(-n2c(Cc3cccn3C)nnc2SCC(=O)NCc2ccco2)cc1,-3.14%
5,CCOc1ccc(NS(=O)(=O)c2cc(C(=O)N3CCCC3)ccc2Cl)cc1,-0.724%
6,NC(=O)c1ccc(-c2c(-c3ccccc3)sc3ccccc23)cc1,11.8%
7,O=C(O)CC/C(=N\Nc1ccc([N+](=O)[O-])cc1S(=O)(=O)N1CCOCC1)c1cccs1,1.11%
8,O=C(O)c1ccc(Cl)c(NC(=O)C2CCCN2S(=O)(=O)c2cccc3nsnc23)c1 (centres unmarked),6.02%
9,COc1ccc(/C=N\NC(=O)COc2ccccc2Cl)cc1Cn1nc(C)cc1C,10%
10,Cc1ccc(/C=C2/NC(=O)N(Cc3ccccc3F)C2=O)o1,1.57%
11,COc1cccc(/C=N/NC(=O)CN2C(=O)NC3NC(=O)NC32)c1 (centres unmarked),4.59%
12,CC1CCCN(S(=O)(=O)c2ccc3[nH]c4c(c3c2)CCCC4)C1 (centres unmarked),7.53%
13,COc1ccc(NS(=O)(=O)c2ccc(SC)cc2)cc1,6.13%
14,CC(=O)Nc1ncc(N=Nc2cccc(C(F)(F)F)c2)s1,12.1%
15,CCc1nc2ccccc2n1CCC(=O)O.Cl,5.08%
16,O=C(CN1C(=O)c2ccccc2C1=O)NCCOc1ccccc1,12.6%
17,O=C(CNC(=O)c1ccc(Br)o1)NCc1cccc(Cl)c1,15.4%
18,COc1ccc(CC(=O)NCC2(c3ccc(OC)c(OC)c3)CCCC2)cc1,-9.75%
19,CCc1nnc(NC(=O)CSc2nnc(-c3ccccc3NC(=O)c3ccccc3)o2)s1,5.83%

row,Compound,"hERG current change (%, negative = inhibition) at 1uM"
1,O=C(NCCc1nnc2ccc(N3CCCCCC3)nn12)c1ccccc1,9.6%
2,C[C@@H]1CC[C@@]2(O[C@@H](CCO)C[C@H](O)[C@H]2O)O1,5.8%
3,Nc1nc(-c2ccccc2)cs1,-5.05%
4,COC(=O)c1c(NC(=O)CN2CCC3(O)CCCCC3C2c2ccccc2OC)sc(C)c1C (centres unmarked),16%
5,CSc1ncccc1C(=O)NC1CCCc2c1cnn2-c1ccc(C)c(C)c1 (centres unmarked),12%
6,COc1cc(OC)c(OC)cc1CN1CCN(C(=O)CC(C)C)CC1,9.95%
7,CCOCCCNC(=O)c1ccc2c(c1)N=C(CC)c1cc(Br)ccc1S2,10.2%
8,COc1cccc(-c2nnc(SCC(=O)Nc3ccc(OC)c(OC)c3)n2N)c1,15.5%
9,O=C(C1CCCN(Cc2ccccc2Br)C1)N1CCCCC1.O=C(O)C(=O)O (centres unmarked),-1.5%
10,CCOCCn1ccc2c(OCC(=O)Nc3cc(OC)ccc3OC)cccc2c1=O,7.23%
11,COC(=O)c1ccccc1NC(=O)CCS(=O)(=O)c1ccc(Br)s1,8.6%
12,CCCOc1ccc(C=Nc2ccc(OC)c(S(=O)(=O)N3CCOCC3)c2)c(O)c1,18.1%
13,O=C(OCc1ccc([N+](=O)[O-])cc1)c1ccccn1,9.5%
14,COc1ccccc1N1C(=O)C2C(C(=O)c3ccccc3)=NN(c3ccccc3OC)C2C1=O (centres unmarked),11.9%
15,O=C(O)CCc1ccc(-c2ccc(F)cc2)n1CCC(=O)O,16.4%
16,COc1cc2cc(CCOC(=O)c3ccc(F)cc3)oc(=O)c2cc1OC,11.4%
17,NC(N)=NS(=O)(=O)c1ccc(NC(=S)NC(=O)c2ccccc2)cc1,7.4%
18,O=C(N/C(=C/c1cccs1)C(=O)N1CCOCC1)c1ccco1,9.85%
